Source: article PMC4336329 (PLoS ONE, 2015)
The campaign covered roughly 310,000 compounds. About 2,200 (0.71%) showed an effect of 50% or more. Effects have a minus sign here. Some of the results follow.

Each molecule was assayed against human ether-à-go-go-related gene (hERG) potassium channel (human, UniProt Q12809) (assay: primary screen, population patch clamp on CHO cells stably expressing hERG).
human ether-à-go-go-related gene (hERG) potassium channel, sequence (Q12809 whole entry, looked up): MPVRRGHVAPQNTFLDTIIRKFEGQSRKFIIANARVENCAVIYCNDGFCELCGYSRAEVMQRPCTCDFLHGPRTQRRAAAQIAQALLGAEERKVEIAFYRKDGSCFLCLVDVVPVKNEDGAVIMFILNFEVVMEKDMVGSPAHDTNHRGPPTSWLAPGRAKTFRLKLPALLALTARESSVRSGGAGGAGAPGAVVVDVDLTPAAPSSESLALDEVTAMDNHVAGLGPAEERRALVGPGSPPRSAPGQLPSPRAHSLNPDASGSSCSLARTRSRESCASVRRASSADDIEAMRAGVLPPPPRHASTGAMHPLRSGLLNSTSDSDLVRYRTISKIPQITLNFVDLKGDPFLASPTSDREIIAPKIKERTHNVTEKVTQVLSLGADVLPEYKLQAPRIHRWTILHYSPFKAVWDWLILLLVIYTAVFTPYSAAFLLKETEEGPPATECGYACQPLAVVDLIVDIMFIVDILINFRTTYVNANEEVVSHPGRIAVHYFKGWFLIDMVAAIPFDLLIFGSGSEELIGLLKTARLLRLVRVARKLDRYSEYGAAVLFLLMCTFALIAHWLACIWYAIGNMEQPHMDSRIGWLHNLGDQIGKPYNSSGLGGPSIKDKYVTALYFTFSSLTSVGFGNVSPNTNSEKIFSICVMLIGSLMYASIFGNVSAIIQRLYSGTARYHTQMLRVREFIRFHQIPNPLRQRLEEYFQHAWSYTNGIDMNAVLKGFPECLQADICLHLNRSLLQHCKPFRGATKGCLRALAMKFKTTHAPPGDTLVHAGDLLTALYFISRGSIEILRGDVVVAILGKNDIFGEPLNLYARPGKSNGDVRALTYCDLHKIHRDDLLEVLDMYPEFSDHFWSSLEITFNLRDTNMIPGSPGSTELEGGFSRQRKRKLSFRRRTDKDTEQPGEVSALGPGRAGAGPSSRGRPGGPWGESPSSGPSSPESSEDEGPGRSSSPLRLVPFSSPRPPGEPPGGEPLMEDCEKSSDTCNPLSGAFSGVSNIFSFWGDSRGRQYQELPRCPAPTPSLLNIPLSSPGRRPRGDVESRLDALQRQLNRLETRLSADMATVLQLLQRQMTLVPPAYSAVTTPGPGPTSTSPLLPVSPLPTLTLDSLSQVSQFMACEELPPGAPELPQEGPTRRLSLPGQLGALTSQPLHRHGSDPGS

SMILES | hERG current change (%, negative = inhibition) at 1uM [%]
O=C(c1cccc(N2C(=O)C3C4C=CC(C4)C3C2=O)c1)N1CCN(c2ccccc2)CC1 (stereo not drawn) | 7.71
COc1ccc(OC)c(C2C3=C(N=c4s/c(=C\c5cccc(O)c5)c(=O)n42)c2ccccc2CC3)c1 (stereo not drawn) | 2.76
CCOC(=O)c1nnn(-c2nonc2N)c1CN1CCCC1 | 13.8
Cc1ccccc1Nc1nc(=O)c2cc([N+](=O)[O-])ccc2s1 | 2.19
CC12CCC(C(=O)NCc3ccc4c(c3)OCO4)(OC1=O)C2(C)C (stereo not drawn) | 13.2
O=C(NNc1c2ccccc2nc2ccccc12)c1cc2ccccc2cc1O | 20.9
CCC(NC(=O)c1cc(COc2ccc(OC)cc2Cl)on1)c1ccncc1 (stereo not drawn) | 1.89
O=C(Cn1cc(C(=O)c2ccccc2F)c2ccccc21)NC1CC1 | -10.6
C/C(=N\NC(=S)NCCc1ccccc1)c1ccc(C#N)cc1 | 4.49
CC(C)[C@H](N)C(=O)OCCOCn1cnc2c(=O)[nH]c(N)nc21 | 16.3
CN(CC(=O)Nc1ccccc1Br)C(=O)c1ccncc1 | 9.54
Cc1nn(Cc2ccc(Cl)c(Cl)c2)c(C)c1NC(=O)c1cc(CC(C)C)on1 | 4.05
COC(=O)C1=CN(Cc2cccs2)C=C(C(=O)OC)C1c1cccc(O)c1 | -9.82
COc1ccc(Oc2cn[nH]c2-c2ccc(OCC(=O)NN)cc2O)cc1 | 2.58
CCCN1C(=O)/C(=C2\SC(N3CCCCC3)=NC2=O)c2ccccc21 | 19.5
Cc1cc(F)ccc1S(=O)(=O)N1CCCOC1CNC(=O)C(=O)NCc1ccco1 (stereo not drawn) | 19.4
CCSc1nnc(NC(=O)c2cc(C)oc2C)s1 | 13.9
C=CCN1C(=O)NC(=O)C(Cc2ccc(OC)c(OC)c2)C1=O (stereo not drawn) | 12.2
OCCNc1nc2ccc(Cl)cc2[nH]1 | 1.16
O=C(CN1C(=O)NC(Cc2ccccc2)C1=O)Nc1ccc(F)cc1 (stereo not drawn) | 11.3
O=C(CCSc1nc(-c2ccco2)cc(C(F)(F)F)n1)NCC1CCCO1 (stereo not drawn) | 5.73
Nc1nn(S(=O)(=O)c2ccccc2)cc1-c1ccc([N+](=O)[O-])cc1 | -1.13
Cc1cccc(-n2c(O)c(C=NCc3cccnc3)c(=O)[nH]c2=O)c1C | 12.4

SMILES | hERG current change (%, negative = inhibition) at 1uM [%]
COc1ccc(C(C)=O)cc1COC(=O)Cc1cc(OC)c(OC)c(OC)c1 | 8.45
COc1ccc(CCNC(=O)CO/N=C/c2cc3c(cc2Br)OCO3)cc1OC | 14.5
O=C(CSc1ncn(-c2ccccc2)n1)c1cccs1 | 8.29
COc1ccc(C(C)=O)cc1CC(C(=O)c1ccc(F)cc1)N(C)C (stereo not drawn) | 3.39
Cc1ccc(CS(=O)(=O)CCC(=O)NCC2CCCO2)cc1 (stereo not drawn) | -13.3
COc1ccc(-c2nc(CS(=O)CC(=O)N3CCN(C)CC3)c(C)o2)cc1 (stereo not drawn) | 13.5
O=C(Cn1ccc([N+](=O)[O-])n1)N1CCc2ccccc21 | 7.98
Cc1ccccc1C(=O)O/N=C(\N)c1ccc([N+](=O)[O-])cc1 | 10.2
Cc1ccc(N(CC(=O)N2CCN(c3ccc(F)cc3)CC2)S(=O)(=O)c2c(C)noc2C)cc1 | 4.59
CCN(Cc1nc2cc(Cl)ccc2c(=O)[nH]1)C(=O)c1cccc(NC(=O)c2cccs2)c1 | 4.39
CN(Cc1cnccn1)C(=O)C1CCC(=O)N(CCc2ccccc2)C1 (stereo not drawn) | 17.4
O=C(Nc1cc2cc([N+](=O)[O-])ccc2oc1=O)c1cccs1 | 9.93
O=S(=O)(c1ccc(Cl)cc1)N1CCCCCC1 | 10.8
O=C(N/N=C/c1cccnc1)c1cccc(Cl)c1 | 11.7
COc1ccc(N(C(=O)c2cc3ccccc3oc2=O)C2C=CS(=O)(=O)C2)c(OC)c1 (stereo not drawn) | 5.01
COc1ccc(C2CC(=O)Oc3cc(O)cc(O)c32)cc1 (stereo not drawn) | 7.9
COc1ccc(-c2nc(CCNC(=O)c3ccc(Br)o3)cs2)cc1 | 13.6
Cc1ccc(-n2cc(C(C)(C)C)[nH]c2=S)cc1 | 7.74
Cc1cc(C)c2cc(C(=O)N3CCC(C(=O)c4ccc(F)cc4)CC3)[nH]c2c1 | 8.43
CCOc1ccc(S(=O)(=O)Nc2cc(Sc3ncn[nH]3)c3oc(=O)sc3c2)cc1 | 3.06
CN1CCc2c(sc(/N=C/c3cc(Cl)ccc3O)c2C#N)C1 | 7.61
O=C(COC(=O)/C=C/c1ccc2c(c1)OCO2)NCc1ccccc1 | 8.25
